Target: T1, recombinantly expressed purified soluble WNV E-protein (truncated form, strain 382-99) (West Nile virus strain 382-99, UniProt Q9Q6P4 291-696)
T1 construct: also called recombinant WNV E protein; truncated E protein; not shown: Myc tag and His tag from pAdapt.myc.his
T1 sequence: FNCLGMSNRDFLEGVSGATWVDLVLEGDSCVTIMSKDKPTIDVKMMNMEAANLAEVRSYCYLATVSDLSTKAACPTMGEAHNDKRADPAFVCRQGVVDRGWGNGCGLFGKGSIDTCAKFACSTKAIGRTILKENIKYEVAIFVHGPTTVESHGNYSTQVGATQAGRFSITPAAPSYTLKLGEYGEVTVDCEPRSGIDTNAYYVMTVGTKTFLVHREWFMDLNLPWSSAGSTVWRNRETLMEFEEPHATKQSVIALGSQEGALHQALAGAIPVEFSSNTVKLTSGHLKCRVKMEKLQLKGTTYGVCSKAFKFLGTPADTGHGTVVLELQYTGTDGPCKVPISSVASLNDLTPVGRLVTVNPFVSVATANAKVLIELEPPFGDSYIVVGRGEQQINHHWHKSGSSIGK
Assay: phage ELISA on coated soluble WNV E-protein, OD 492 nm

B1: single-chain phage antibody SC04-348 (scFv)
scFv: EVQLVQSGGGLVQPGRSLRLSCAASGFTFDDYAMHWVRQAPGKGLEWVSGISWNSGNIGYADSVKGRFTISRDNAKNSLYLQMNSLRAEDTALYYCAKDKSYYYGSGTSGGWFDPWGQGTLVTVSSGTGGSGGTGSGTGGST[sequence of about 100 residues omitted]
Question: Does B1 bind?
Answer: no binding
